Assay results published in patent publication US5877019A, “Animal 2-5A-dependent RNases and encoding sequences therefor” (Cleveland Clinic Foundation, priority 1996, dated 1999).

How the values were obtained:
poly(U) = test: Ribonuclease assay with 2-5A-cellulose; format: biochemical; conditions: enzyme from reticulocyte lysate bound to 2-5A-cellulose, 30° C.
Experimental: (§1) FIG. 5B is reticulocyte lysate pretreated to remove endogeous 2-5A-dependent RNase and is incubated in the absence of added mRNA (.box-solid.), in the presence of human 2-5A-dependent RNase mRNA without inhibitor (.circle-solid., .box-solid.) or in the presence of both 2-5A-dependent RNase mRNA and cycloheximide (50 μg per ml (.circle-solid.). See Example. Subsequently, the recombinant 2-5A-dependent RNase (or controls) is adsorbed to 2-5A-cellulose and ribonuclease assays are performed after extensive washing of the matrix to reduce general nuclease activity. Radiolabeled substrate RNA was either poly(U) (.smallcircle., .circle-solid., .box-solid.) or poly(C) (.box-solid.).
(§2) Briefly, lysates are adsorbed to about 30 μM of 2-5A-cellulose on ice for about two hours. […] The matrix is then incubated with poly(U)-[^32 P]Cp or poly(C)-[^32 P]Cp (both at about 16 μM in nucleotide equivalents) at about 30° C. and the levels of acid-precipitable radioactive RNA are determined by filtration on glass-fiber filters.

poly(C) = test: Ribonuclease assay with 2-5A-cellulose; format: biochemical; conditions: after one hour of incubation; enzyme bound to 2-5A-cellulose
Experimental: as §1, §2

B1: recombinant human 2-5A-dependent RNase: full-length human 2-5A-dependent RNase (SEQ ID NO: 2, clone ZC5) produced in vitro (protein)
chain: MESRDHNNPQEGPTSSSGRRAAVEDNHLLIKAVQNEDVDLVQQLLEGGANVNFQEEEGGWTPLHNAVQMSREDIVELLLRHGADPVLRKKNGATLFILAAIAGSVKLLKLFLSKGADVNECDFYGFTAFMEAAVYGKVKALKFLYKRGANVNLRRKTKEDQERLRKGGATALMDAAEKGHVEVLKILLDEMGADVNACDNMGRNALIHALLSSDDSDVEAITHLLLDHGADVNVRGERGKTPLILAVEKKHLGLVQRLLEQEHIEINDTDSDGKTALLLAVELKLKKIAELLCKRGASTDCGDLVMTARRNYDHSLVKVLLSHGAKEDFHPPAEDWKPQSSHWGAALKDLHRIYRPMIGKLKFFIDEKYKIADTSEGGIYLGFYEKQEVAVKTFCEGSPRAQREVSCLQSSRENSHLVTFYGSESHRGHLFVCVTLCEQTLEACLDVHRGEDVENEEDEFARNVLSSIFKAVQELHLSCGYTHQDLQPQNILIDSKKAAHLADFDKSIKWAGDPQEVKRDLEDLGRLVLYVVKKGSISFEDLKAQSNEEVVQLSPDEETKDLIHRLFHPGEHVRDCLSDLLGHPFFWTWESRYRTLRNVGNESDIKTRKSESEILRLLQPGPSEHSKSFDKWTTKINECVMKKMNKFYEKRGNFYQNTVGDLLKFIRNLGEHIDEEKHKKMKLKIGDPSLYFQKTFPDLVIYVYTKLQNTEYRKHFPQTHSPNKPQCDGAGGASGLASPGC
- half-life of poly(U) degradation (poly(U)): about 10 minutes
- poly(C) degraded (poly(C)): 20%
